Structures are written as SMILES. About 2,200 (0.71%) of roughly 310,000 compounds showed an effect of 50% or more. The effect is printed as a negative number. Some of the results follow.

Sequence of human ether-à-go-go-related gene (hERG) potassium channel (Q12809 whole entry, looked up): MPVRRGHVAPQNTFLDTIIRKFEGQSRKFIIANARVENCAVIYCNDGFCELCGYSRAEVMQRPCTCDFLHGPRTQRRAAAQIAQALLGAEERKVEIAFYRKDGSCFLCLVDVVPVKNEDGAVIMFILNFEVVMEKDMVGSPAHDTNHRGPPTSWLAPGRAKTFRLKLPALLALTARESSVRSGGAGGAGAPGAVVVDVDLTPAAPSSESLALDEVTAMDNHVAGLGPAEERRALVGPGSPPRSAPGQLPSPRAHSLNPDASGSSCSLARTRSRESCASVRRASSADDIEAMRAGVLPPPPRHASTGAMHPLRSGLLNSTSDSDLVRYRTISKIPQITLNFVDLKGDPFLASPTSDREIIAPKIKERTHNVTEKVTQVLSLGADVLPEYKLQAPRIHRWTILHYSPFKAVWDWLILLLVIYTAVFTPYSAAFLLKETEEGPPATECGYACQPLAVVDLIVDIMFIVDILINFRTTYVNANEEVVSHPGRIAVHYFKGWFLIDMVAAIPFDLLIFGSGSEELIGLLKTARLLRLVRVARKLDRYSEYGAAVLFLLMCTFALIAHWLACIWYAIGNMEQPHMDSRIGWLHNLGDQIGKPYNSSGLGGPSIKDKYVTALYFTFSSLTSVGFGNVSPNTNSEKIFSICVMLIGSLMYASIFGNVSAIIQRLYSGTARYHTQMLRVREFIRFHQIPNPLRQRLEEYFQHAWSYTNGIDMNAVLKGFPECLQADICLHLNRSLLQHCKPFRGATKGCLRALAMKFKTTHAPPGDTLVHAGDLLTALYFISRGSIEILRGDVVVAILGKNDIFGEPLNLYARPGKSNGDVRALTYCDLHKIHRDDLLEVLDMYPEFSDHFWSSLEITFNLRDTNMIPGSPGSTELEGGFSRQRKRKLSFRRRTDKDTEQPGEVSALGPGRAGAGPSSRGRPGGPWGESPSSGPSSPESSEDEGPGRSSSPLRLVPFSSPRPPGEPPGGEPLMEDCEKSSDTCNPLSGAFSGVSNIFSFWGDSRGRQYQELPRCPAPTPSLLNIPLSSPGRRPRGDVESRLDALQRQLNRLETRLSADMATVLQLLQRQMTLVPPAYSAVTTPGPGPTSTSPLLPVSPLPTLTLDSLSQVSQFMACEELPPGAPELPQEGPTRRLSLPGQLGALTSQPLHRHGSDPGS

This experiment concerns the target human ether-à-go-go-related gene (hERG) potassium channel (human, UniProt Q12809). The experiment is described as follows: primary screen, population patch clamp on CHO cells stably expressing hERG.
Take `C=C(C)Cn1c(SCC(=O)O)nnc1-c1ccc(OC)cc1`: the “hERG current change (%, negative = inhibition) at 1uM” value was found to be 8.41%.
Regarding `Cc1cc(NC(=O)c2ccccc2F)n(C(C)(C)C)n1`, the “hERG current change (%, negative = inhibition) at 1uM” value worked out at 10.6%.
`Cc1ccc(C)c(-c2csc(NC(=O)c3cnccn3)n2)c1`: the “hERG current change (%, negative = inhibition) at 1uM” value stood at 1.78%.
For the molecule `Cc1cccc(N=C2NC(=O)C(CO)(CO)S2)c1`, the “hERG current change (%, negative = inhibition) at 1uM” value worked out at 17.4%.
Take `CCOc1ccccc1-c1cc(-c2ccc(OC)cc2)nc2c1c(=O)n(C)c(=O)n2C`: the “hERG current change (%, negative = inhibition) at 1uM” value amounted to 2.22%.
As for `CC(=O)N(c1ccc(Br)cc1)C1C=CS(=O)(=O)C1` (stereo not shown), the “hERG current change (%, negative = inhibition) at 1uM” value is 1.97%.
As for `Cc1ccc(-c2cc(N)n[nH]2)cc1`, the “hERG current change (%, negative = inhibition) at 1uM” value is 5.46%.
Consider `COc1ccccc1NC(=O)C(=O)NCC(c1ccco1)N1CCc2ccccc21` (stereo not shown), for which the “hERG current change (%, negative = inhibition) at 1uM” value is 4.21%.
As for `Cc1noc(/C=C/N(C)C)c1S(=O)(=O)N1CCCC(C(=O)NC2CCCCC2)C1` (stereo not shown), the “hERG current change (%, negative = inhibition) at 1uM” value was found to be 5.34%.
For the molecule `O=c1c2cc(Cl)ccc2oc2nc3n(c(=O)c12)CCCS3`, the “hERG current change (%, negative = inhibition) at 1uM” value worked out at 3.67%.
As to `O=C(NNc1cccc(Cl)c1)c1cccnc1Cl`, the “hERG current change (%, negative = inhibition) at 1uM” value is 18.2%.
Regarding `O=C(NC1CC1)C1CCC(=O)N1C1CCCC1` (stereo not shown), the “hERG current change (%, negative = inhibition) at 1uM” value is 2.73%.
Consider `CCOc1ccc(Nc2cc(C)nc(-n3nc(C)cc3C)n2)cc1`, for which the “hERG current change (%, negative = inhibition) at 1uM” value worked out at 4.76%.
For `COc1ccc(OC)c(CNC(=O)CCC(=O)N2Cc3cccc(OC)c3Oc3ncccc32)c1`, the “hERG current change (%, negative = inhibition) at 1uM” value was 3.4%.
Consider `CCOc1ccc(C2CC(=O)n3nc(C45CC6CC(CC(C6)C4)C5)nc3S2)cc1OC` (stereo not shown), for which the “hERG current change (%, negative = inhibition) at 1uM” value is given as 6.37%.
As to `Cc1ccc(Nc2n[nH]c(C)c2[N+](=O)[O-])cc1C`, the “hERG current change (%, negative = inhibition) at 1uM” value is reported as 15.7%.
Consider `Cc1[nH]nc(NCCO)c1[N+](=O)[O-]`, for which the “hERG current change (%, negative = inhibition) at 1uM” value is reported as -3.88%.
For `O=C1c2ccccc2COc2ccc(O)cc21`, the “hERG current change (%, negative = inhibition) at 1uM” value came to 17.8%.
With `O=C(CNC(=O)c1ccco1)N/N=C/c1ccc(O)cc1O` the figure was 12.9%.
With `CC#CCOC(=O)c1c(C)nc2sc3c(c2c1N)CCC(O)C3` (stereo not shown) the figure was 7.48%; with `CCc1cc(=O)oc2cc(OC(C)C(=O)NCCCn3ccnc3)ccc12` (stereo not shown), 15.2%; with `CCN(CC)c1ccc(C=C2C(=O)OC(c3ccccc3)OC2=O)cc1` (stereo not shown), 17.9%.
With `CC(=O)Nc1ccc(S(=O)(=O)NCC2CCC(C(=O)NCCC(C)C)CC2)cc1` (stereo not shown) the figure was 12.6%; with `C1CCC(NC2=NCCC2)CC1.Cl`, 4.48%.
In the case of `CC(OC(=O)CNS(=O)(=O)/C=C/c1ccccc1)C(=O)Nc1ccc(S(=O)(=O)N2CCCC2)cc1` (stereo not shown), the “hERG current change (%, negative = inhibition) at 1uM” value amounted to 4.24%.
Consider `NC(=O)C1CCN(C(=O)CNC(=O)c2ccccc2)CC1`, for which the “hERG current change (%, negative = inhibition) at 1uM” value was determined as 0.314%.
In the case of `NC(=O)NC(CC(=O)NCCCc1ccccc1)c1ccccc1Cl` (stereo not shown), the “hERG current change (%, negative = inhibition) at 1uM” value is reported as 12.6%.
Under `C/C(=N\NC(=O)c1ccncc1)c1cccnc1` stands 17.3%; under `Cc1cc(C(=O)O)oc(=O)c1`, 15%.
With `CCOC(=O)N1CCC(NC(=O)c2sc3nc4n(c(=O)c3c2C)CCCC4)CC1` the figure was 7.38%; with `COc1ccc(-c2c[n+](CC(=O)OC3CC(C)CCC3C(C)C)c3n2CCC3)cc1.[Cl-]` (stereo not shown), -29.9%.
On to `CCCN1CCN(S(=O)(=O)c2ccc(-n3cnnn3)cc2)CC1`, for which the “hERG current change (%, negative = inhibition) at 1uM” value was -7.76%.
Under `Cc1ccnc(NC(=O)c2ccoc2C)c1` stands 3.67%.
`O=[N+]([O-])c1ccc(Cl)c(/C=N/N2CCN(Cc3ccccc3)CC2)c1`: the “hERG current change (%, negative = inhibition) at 1uM” value is recorded as 4.38%.
As for `CN/S(=N/S(=O)(=O)c1ccccc1)c1ccc(C)cc1` (stereo not shown), the “hERG current change (%, negative = inhibition) at 1uM” value is listed as 1.15%.
With `COc1ccccc1CN(C)C(=O)C1(c2ccc(Cl)cc2)CC1` the figure was 4.98%; with `Cc1nnc(SCC(=O)Nc2ccc(Cl)cn2)s1`, 15.8%.
Turning to `COc1ccc(NC(=O)CN(C)C(=O)CNC(=O)c2ccc(C)s2)cc1`, the “hERG current change (%, negative = inhibition) at 1uM” value came to 12.1%.
As to `Cc1cccc(-n2nc(C)c3c2NC2=C(C(=O)CCC2)C3c2ccccn2)c1` (stereo not shown), the “hERG current change (%, negative = inhibition) at 1uM” value is reported as -1.5%.
`CC(=O)N=c1c(C#N)cc2c(=O)n3ccccc3nc2n1Cc1ccccc1`: the “hERG current change (%, negative = inhibition) at 1uM” value is given as -10.2%.
Regarding `Cc1cccn2c(=O)c3cc(C(=O)NC4CCCCC4)n(C)c3nc12`, the “hERG current change (%, negative = inhibition) at 1uM” value turned out to be 13.8%.
Turning to `O=C1C=C(c2ccc(-c3ccccc3)c(F)c2)C[C@@H](c2ccc(Cl)cc2)C1`, the “hERG current change (%, negative = inhibition) at 1uM” value was 14.2%.
With `O=C(O)C1CCCCC1C(=O)Nc1ccc(S(=O)(=O)N2CCCC2)cc1` (stereo not shown) the figure was 12.9%; with `COc1ccc(CCNC(=O)CSc2ccc(Br)cc2)cc1OC`, 1.45%.
Under `NC(=O)NNc1ncc(C(F)(F)F)cc1Cl` stands 3.81%.
Turning to `COc1ccccc1Nc1nnc(SCC(=O)N2CCCC2=O)s1`, the “hERG current change (%, negative = inhibition) at 1uM” value was determined as 2.93%.
